Data: PubChem BioAssay AID488969 (Vanderbilt High Throughput Screening Facility, 2010)
In all, about 110,000 compounds were measured (“z-score”: median about -0.1, highest 2% from about 2 on). Some of the results follow. Calls of active or inactive are those of the source.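 Rule for the calls: active = z-score in the third read window above 3 or below -3; inactive = the rest.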

molecular target: Metabotropic glutamate receptor 8 (Rattus norvegicus) (UniProt P70579); assay: rat mGluR8 modulators via GIRK flux, primary screen, cell-based, thallium flux, HTS (AID 488969); conditions: HEK293 rat mGluR8, GIRK (G protein-gated inwardly rectifying potassium channel) thallium flux, FluoZin2; at 10 µM; stronger effect = higher value; submaximal glutamate (EC20) added with thallium
UniProt P70579, sequence (P70579 whole entry, looked up): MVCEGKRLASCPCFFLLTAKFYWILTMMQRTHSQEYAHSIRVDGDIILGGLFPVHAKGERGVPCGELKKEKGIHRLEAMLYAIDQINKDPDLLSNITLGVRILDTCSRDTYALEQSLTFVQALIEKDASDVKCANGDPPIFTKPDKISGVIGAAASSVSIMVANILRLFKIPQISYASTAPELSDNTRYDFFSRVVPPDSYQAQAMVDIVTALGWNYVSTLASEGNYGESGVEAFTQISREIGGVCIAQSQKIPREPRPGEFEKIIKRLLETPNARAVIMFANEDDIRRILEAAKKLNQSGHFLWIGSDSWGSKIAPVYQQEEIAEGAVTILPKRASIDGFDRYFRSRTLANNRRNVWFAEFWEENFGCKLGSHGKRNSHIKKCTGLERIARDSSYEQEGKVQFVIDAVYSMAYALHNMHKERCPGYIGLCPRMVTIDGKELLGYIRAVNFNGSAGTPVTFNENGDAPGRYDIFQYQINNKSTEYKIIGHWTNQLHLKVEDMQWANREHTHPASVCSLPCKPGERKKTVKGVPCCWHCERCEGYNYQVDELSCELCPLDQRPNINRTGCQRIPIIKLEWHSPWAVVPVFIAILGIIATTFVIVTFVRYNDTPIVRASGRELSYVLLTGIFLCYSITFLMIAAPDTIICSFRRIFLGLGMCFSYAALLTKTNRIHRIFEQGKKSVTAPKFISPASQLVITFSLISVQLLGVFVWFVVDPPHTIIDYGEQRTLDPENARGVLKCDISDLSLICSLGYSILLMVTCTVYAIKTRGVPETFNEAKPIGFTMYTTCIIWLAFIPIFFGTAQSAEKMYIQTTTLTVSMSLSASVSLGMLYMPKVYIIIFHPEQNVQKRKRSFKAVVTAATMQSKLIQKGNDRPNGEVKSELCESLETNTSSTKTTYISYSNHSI

For `CC(C)(C)C1CCc2[nH]nc(C(=O)O)c2C1` (stereo not drawn), the z-score was active: -3.76.

In order of rising z-score:
1. COC(=O)C1=C(C)N(C)C(=S)NC1c1ccc(Cl)cc1 (stereo not drawn)  -1.56
2. Nc1c2c(nc3ccc(Br)cc13)N(c1ccccc1)CC2  -1.03
3. Cn1nc(C(F)(F)F)c2cc(NC(=O)OCC(C)(C)C)sc21  -1.03
4. CC(C)[C@H](Nc1nc(-c2ccccc2)nc2c1oc1ccccc12)C(=O)O  -0.596
5. CC1CCCCN1C(=O)/C(=C\c1ccccc1)c1ccccc1 (stereo not drawn)  -0.424
6. Cc1ccsc1C(=O)N/N=C/c1ccc2c(c1)OCO2  -0.388
7. COc1ccc(NC2C=CS(=O)(=O)C2)cc1 (stereo not drawn)  -0.312
8. CC(C)CCC1CC(CSC(=N)N)OC1=O (stereo not drawn)  -0.229
9. CCOC(=O)c1c(NC(=O)Cc2cccs2)sc(C(=O)N2CCCCC2)c1C  -0.214
10. Cc1ccccc1-c1nnc(Cc2ccccc2)o1  -0.211
11. CCn1c(SCc2nc3ccccc3c(=O)[nH]2)nnc1-c1ccncc1  -0.193
12. O=C(c1ccc(-c2ccccc2)cc1)N1CCC(C(=O)N2CCCC2)CC1  -0.187
13. CCOC(=O)/C=C/C(=O)Nc1nccs1  -0.174
14. O=C(COC(=O)c1ccncc1)Nc1cccc(Cl)c1  -0.157
15. COC(=O)/C(=N\Nc1ccccc1)Sc1nnc(-c2ccc(OC)cc2)n1C  -0.153
16. CCn1c(SCC(=O)NC(=O)NCc2ccco2)nnc1-c1cccs1  -0.133
17. CC(=O)Nc1ccc(OC(=O)c2cc3cc(Br)cc(Br)c3oc2=O)cc1  -0.128
18. CC1=CC(c2ccccc2)NC(=S)N1 (stereo not drawn)  -0.113
19. Cc1nnc(NCCN2CCOCC2)[nH]c1=O  -0.109
20. CCCCc1c(O)nc(N2CCN(Cc3ccccc3)CC2)[nH]c1=O  -0.0966
21. C=CCn1cc(C(=O)NCc2cccnc2)c(=O)c2cc(S(=O)(=O)N(CC)CC)ccc21  -0.0891
22. Brc1ccc(Nc2nc3ccccc3n3nnnc23)cc1  -0.0764
23. Cc1ccc(-n2ncc3c(N4CCN(c5ccc(F)cc5)CC4)ncnc32)c(C)c1  -0.0734
24. CCC(C)C(NC(=O)c1ccccc1NC(=O)c1ccccc1)C(=O)N1CCOCC1 (stereo not drawn)  -0.0703
25. CNC(=S)Nc1ccc2nc(C)c(C)nc2c1  -0.0637
26. O=C1OC(c2ccccc2)c2ccc3ccccc3c21 (stereo not drawn)  -0.00828
27. CC(CCc1ccccc1)NC(=O)CSc1nc(N)cc(N)n1 (stereo not drawn)  -0.00376
28. C=CCNC(=O)c1cc(Cl)ccc1Cl  0.018
29. Cc1ccc(S(=O)(=O)N(Cc2ccc(Cl)cc2)c2ccccc2C(=O)NCc2cccnc2)cc1  0.0489
30. CCNS(=O)(=O)c1ccc(Br)c(OC)c1  0.22
31. Cc1ccc(OCC(=O)NNc2c3ccccc3nc3ccccc23)cc1  0.233
32. COc1ccc(-c2nc3oc4cc(OC)ccc4c(=O)c3c(=O)n2Cc2ccco2)cc1  0.296
